Test results: article PMC4336329 (PLoS ONE, 2015)
About 14,000 (4.5%) of roughly 310,000 compounds showed an effect of 50% or more. The effect is printed as a negative number. This is one part of the list.

target: human ether-à-go-go-related gene (hERG) potassium channel (human, UniProt Q12809); assay: primary screen, population patch clamp on CHO cells stably expressing hERG
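Note: peak tail current of the secondary pulse compared with the same well before compound.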

Sequence of human ether-à-go-go-related gene (hERG) potassium channel (Q12809 whole entry, looked up): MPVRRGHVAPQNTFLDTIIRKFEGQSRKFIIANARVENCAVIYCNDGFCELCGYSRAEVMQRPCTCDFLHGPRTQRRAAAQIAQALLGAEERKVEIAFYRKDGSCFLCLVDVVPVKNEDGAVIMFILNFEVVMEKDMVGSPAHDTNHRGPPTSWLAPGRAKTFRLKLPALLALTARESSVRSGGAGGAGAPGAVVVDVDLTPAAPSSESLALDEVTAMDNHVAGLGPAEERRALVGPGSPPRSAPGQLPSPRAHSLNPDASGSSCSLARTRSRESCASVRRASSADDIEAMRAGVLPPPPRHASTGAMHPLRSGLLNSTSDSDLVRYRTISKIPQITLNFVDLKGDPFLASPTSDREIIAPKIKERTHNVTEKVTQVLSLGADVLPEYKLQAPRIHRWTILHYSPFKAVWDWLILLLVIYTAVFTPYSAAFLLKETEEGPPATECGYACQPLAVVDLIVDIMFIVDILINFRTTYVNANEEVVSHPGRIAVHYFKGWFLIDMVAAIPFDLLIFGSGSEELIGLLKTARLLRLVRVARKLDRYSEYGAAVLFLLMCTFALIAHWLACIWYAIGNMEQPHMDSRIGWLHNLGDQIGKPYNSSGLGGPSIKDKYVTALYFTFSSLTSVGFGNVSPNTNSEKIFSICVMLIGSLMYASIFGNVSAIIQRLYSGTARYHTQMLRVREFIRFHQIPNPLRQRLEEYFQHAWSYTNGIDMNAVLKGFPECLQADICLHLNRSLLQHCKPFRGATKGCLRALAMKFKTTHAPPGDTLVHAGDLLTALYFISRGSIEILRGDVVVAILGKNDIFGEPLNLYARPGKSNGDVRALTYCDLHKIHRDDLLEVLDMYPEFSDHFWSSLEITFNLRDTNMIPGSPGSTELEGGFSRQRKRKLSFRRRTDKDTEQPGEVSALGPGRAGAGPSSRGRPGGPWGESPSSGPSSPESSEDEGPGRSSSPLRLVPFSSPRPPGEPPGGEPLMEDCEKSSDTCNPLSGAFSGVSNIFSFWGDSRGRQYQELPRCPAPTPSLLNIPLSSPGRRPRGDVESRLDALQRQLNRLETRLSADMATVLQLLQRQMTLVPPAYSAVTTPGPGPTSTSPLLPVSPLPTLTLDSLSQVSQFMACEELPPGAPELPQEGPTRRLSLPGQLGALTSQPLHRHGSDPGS

SMILES	hERG current change (%, negative = inhibition) at 10uM
Cc1ccccc1C1CC(c2ccc(Br)cc2)Nc2nc(N)nn21 (stereo not drawn)	-52.3%
CSc1cccc(NS(=O)(=O)c2cn(C)cn2)c1	5.72%
COc1c(C)cccc1C(=O)NCc1ccc2c(c1)OCO2	-2.64%
CC(C)C(=O)Nc1cccc(-c2csc(-c3ccccc3)n2)c1	0.558%
O=C(CN(C(=O)CCC(=O)Nc1nccs1)c1ccc(F)cc1)NCC1CCCO1 (stereo not drawn)	5.64%
Cc1ccc(S(=O)(=O)N(CC(=O)Nc2ccc(F)cc2)C(=O)N2CCN(C)CC2)cc1	10.1%
COc1ccc(CNC(=O)COC(=O)[C@H](Cc2c[nH]c3ccccc23)NC(=O)c2cccs2)cc1	-0.701%
COc1cc2oc(=O)c(Br)c(C)c2c(OC)c1OC	-9.68%
Cc1ccc(OCc2nnc(SCC(=O)Nc3nccs3)n2-c2ccccc2)cc1C	15.8%
COc1ccc(OC)c(-n2c(=S)[nH]c3cc(C(=O)N4CCC(C(N)=O)CC4)ccc3c2=O)c1	-2.14%
COc1cccc(-c2cc(C(=O)N3CCCCCC3)no2)c1	-14.6%
Cc1cccc(N=C/C(C(=O)C(F)(F)F)=C(\O)c2ccco2)c1	-16.8%
COc1cc2ccccc2cc1C(=O)Nc1ccc(S(=O)(=O)Nc2cc(C)on2)cc1	-9.57%
COc1ccccc1NC(CC(=O)c1ccccc1)C(=O)OCC(=O)c1ccc(C)cc1 (stereo not drawn)	0.733%
CS(=O)(=O)N(CC(=O)NCc1ccccn1)c1ccc2c(c1)OCCO2	7.53%
COc1ccc(N(CC(=O)Nc2cc(OC)cc(OC)c2)S(=O)(=O)c2c(C)n[nH]c2C)cc1	10.3%
Cc1cc(N2C(=O)CC(N3CCN(C(c4ccccc4)c4ccccc4)CC3)C2=O)no1 (stereo not drawn)	-14.9%
NNC(=O)c1nnn(-c2nonc2N)c1CN1CCCC1	14%
Cc1ccc(C)c(S(=O)(=O)NCc2ccc(C(=O)NCc3ccco3)cc2)c1	-29.1%
COc1ccc(CCNC(=O)Cc2nn(C)c(=O)c3ccccc23)cc1OC	0.902%
O=C(NCCN1C(=O)S/C(=C\c2ccc(Cl)cc2Cl)C1=O)C1=COCCO1	-6.04%
CCc1c(C2(O)CCCCC2)[nH]c2c(C(=O)OC)cc(Cl)cc12	12%

SMILES	hERG current change (%, negative = inhibition) at 10uM
O=c1c2ccccc2n2c(=S)[nH]nc2n1-c1ccccc1	38.4%
Cc1c(OCC(=O)NCCN2CCOCC2)ccc2c(-c3ccccc3)cc(=O)oc12	3.21%
Cc1ccc(NC(=O)CCn2cccc2)cc1F	9.94%
CS(=O)(=O)n1nc(-c2ccccc2)nc1NCc1ccco1	-5.05%
CCOC(=O)C1=C(COC(=O)COc2cc(C)ccc2C)NC(=O)NC1C (stereo not drawn)	9.23%
CN(CCNC(=O)C1CC(=O)N(c2ccc(F)c(Cl)c2)C1)Cc1ccccc1 (stereo not drawn)	-52.5%
N[C@@]1(C(=O)O)CC[C@@H](C(=O)O)C1.O	13.1%
CCN(c1ccccc1)S(=O)(=O)c1cccc(C(=O)N2CCN(S(=O)(=O)c3ccccc3)CC2)c1	0.499%
Cc1ncc([N+](=O)[O-])n1CC(=O)N/N=C/c1ccc(F)cc1	-13.6%
COc1ccc(C2(c3ccc(OC)cc3)NC(=O)NC2=O)cc1	15.6%
O=C(CC1SC2=NCCN2C1=O)Nc1ccc(Br)cc1 (stereo not drawn)	8.33%
O=C(COC(=O)c1cccc(S(=O)(=O)N2CCN(c3ccccc3)CC2)c1)NCC1CCCO1 (stereo not drawn)	-2.84%
CC(=O)N(Cc1ccc(Cl)cc1)c1cnccn1	19.1%
CCOC(=O)C1CCCN(C(=O)Cn2cccc2C(=O)c2ccccc2)C1 (stereo not drawn)	-11.5%
COC(=O)CSc1nc(C)c(C)c(C)c1C(N)=O	11.7%
CC(=O)NC1(c2nnnn2CCOC(=O)Nc2ccc(Cl)cc2)CCCC1	-15.8%
CCOC(=O)c1nnn(-c2ccccc2)c1C	-6.45%
Cn1nc(-c2ccccc2)c2cc(C(=O)O)sc21	34.4%
CC1=CC(=O)C(C(C)=Nc2ccccc2Cl)C(=O)O1 (stereo not drawn)	-21.4%
O=C(/C=C/c1ccccc1)N/C(=C/c1ccccc1)C(=O)Nc1ccccc1O	-27.3%
O=C(O)c1ccc2[nH]c3c(c2c1)CCCC3	18.8%
COCCCNC(=O)CCCn1c(=O)[nH]c2ccccc2c1=O	17.9%

SMILES	hERG current change (%, negative = inhibition) at 10uM
COc1ccc2oc(-c3ccccc3[N+](=O)[O-])cc(=O)c2c1	20.4%
Cc1ccc(Nc2ncnc3sccc23)c(C)c1	9.96%
Cc1ccc(NC(=O)CN2CCC(Cc3ccccc3)CC2)cc1S(=O)(=O)N(C)C.O=C(O)C(=O)O	9.69%
CCN(CC)S(=O)(=O)c1ccc(N2CCN(c3cccc(OC)c3)CC2)c([N+](=O)[O-])c1	11.5%
O=c1c(Cc2c(F)cccc2Cl)c(O)ccn1Cc1ccc(F)cc1	-0.211%
Cc1ccc(N(CC(N)=O)C2SC(=O)N(Cc3cccc(C(=O)O)c3)C2=O)cc1 (stereo not drawn)	21.8%
COc1ccccc1N1CCN(Cc2cc(=O)c(OCC#N)co2)CC1	12.5%
Cn1c(=O)[nH]c(=O)c2c1nc(N1CCCCCC1)n2CCSc1nc2ccccc2[nH]1	-11.2%
Cc1cc(C(=O)Nc2cccc3ncccc23)no1	7.4%
Cc1ccc(/C(N)=N/OC(=O)c2ccc3ccccc3c2)cc1	0.62%
COc1ccc(NC(=O)COc2ccc(/C=C/c3cc[n+](C)cc3)cc2OC)cc1.[I-]	25.1%
COc1ccc(NC(=O)/C=C/C(=O)O)c(OC)c1	11.7%
CCCNS(=O)(=O)c1ccc(NC(=O)c2ccccn2)cc1	-1.12%
O=C(CCCOc1ccc(Cl)cc1)Nc1nncs1	-28.9%
Nc1nonc1C(=O)N/N=C/c1ccncc1	8.51%
CCN(CC(=O)NCc1cccs1)S(=O)(=O)c1ccc(NC(C)=O)cc1	-7.22%
CCN(CC)CCNC(=O)c1ccc(NC(=O)CC(NC(=O)c2ccccc2Cl)c2ccccc2)cc1 (stereo not drawn)	16%
COC(=O)CSc1nc(C)c(C(=O)Nc2ccccc2C)c(-c2ccc(Cl)cc2)c1C#N	2.67%
COc1ccc(-c2csc(NC(=O)CCNC(=O)c3ccco3)n2)cc1OC	-17.9%
Nc1nc(SCc2ccc(Br)cc2)[nH]c(=O)c1-c1ccccc1	11.4%
CCCCc1cc(=O)oc2cc(C)c(CN3CCCC3)c(O)c12	-24.7%
COC(=O)N/N=C1/C/C(=N\NC(=O)OC)c2ccccc21	9.63%

SMILES	hERG current change (%, negative = inhibition) at 10uM
CS(=O)(=O)c1ccc(C(=O)CN2C(=O)NC3(CCCc4ccccc43)C2=O)cc1 (stereo not drawn)	-51.5%
COc1ccc(Nc2c3c(nc4ccccc24)CCC3)c(OC)c1	-64.7%
COc1ccc(NC(=O)c2cc(-c3ccc(C)cc3O)n[nH]2)c(OC)c1	32.1%
CCOc1ccc(/C=C2\SC(=S)N(CC(=O)NCCCN3CCOCC3)C2=O)cc1	-17%
COc1ccccc1N1CC(C(=O)Nc2nnc(SCc3ccccn3)s2)CC1=O (stereo not drawn)	-6.03%
O=C(NCc1ccncc1)C(=O)NCC1OCCN1S(=O)(=O)c1ccc(Br)cc1 (stereo not drawn)	-7.57%
CCOc1ccccc1N1C(=O)c2ccc(C(=O)O)cc2C1=O	11%
O=C(Nc1cccnc1)c1noc2c1CCCC2	-4.38%
CCC(C)OC(=O)C1=C(C)NC2=C(C(=O)C(C(=O)OC)C(C)C2)C1c1ccc(N(C)C)cc1 (stereo not drawn)	-9.27%
CCc1noc(C)c1C(=O)N(CC)CC(=O)Nc1cc(Cl)ccc1C	10.3%
O=S(=O)(c1ccc(Br)c2ccccc12)N1CCCC1	22.2%
NNC(=O)c1cccc(S(=O)(=O)Nc2cc(Cl)ccc2Cl)c1	2.86%
CCn1nc(C(=O)OCC(=O)NCC(C)C)c2ccccc2c1=O	0.00988%
Cc1cc(-c2nn(-c3ccccc3F)cc2CN2CCC(C(N)=O)CC2)c(C)s1	-28.5%
CC(C)n1cc(C(=O)c2cc(Br)ccc2O)cc(C#N)c1=O	-4.75%
COc1cc(C(=O)NCC2CCCCC2)ccc1OCc1c(C)noc1C	2.61%
CCOP(=O)(OCC)C(NC(=O)Nc1ccc(Cl)c(Cl)c1)c1ccccc1 (stereo not drawn)	1.82%
CCOc1cccc(C2C(C(=O)c3cccs3)=C(O)C(=O)N2Cc2cccnc2)c1 (stereo not drawn)	18.3%
C=CCn1c(COc2ccc(F)cc2)nnc1SCC(=O)N1CC(=O)Nc2ccccc21	-33%
Cl.Cn1cc(C(=O)NCN2CCCCC2)c2ccccc21	17%
COCCN1C=C2C(=O)C(C)(OC(=O)CCC(=O)OC)C(=O)C=C2C=C1C1CC1 (stereo not drawn)	14.4%
